Reference: the supplement of paper PMC12217912
The list shows a part of the results. The full chains were built here from the parent and the listed change. Values near 0.05 are background.

B1: TEV protease; numbered along this chain (parent)
chain: MGESLFKGPRDYNPISSSICHLTNESDGHTTSLYGIGFGPFIITNKHLFRRNNGTLVVQSLHGVFKVKDTTTLQQHLVDGRDMIIIRMPKDFPPFPQKLKFREPQREERICLVTTNFQTKSMSSMVSDTSCTFPSGDGIFWKHWIQTKDGQCGSPLVSTRDGFIVGIHSASNFTNTNNYFTSVPKNFMELLTNQEAQQWVSGWRLNADSVLWGGHKVFMVKPEEPFQPVKEATQL

Variants of: B1
Assay: raw area under fraction-flipped curve 0-4 h after induction (AUC4h, not background-subtracted), DNA-recorder readout of cleavage of the substrate (dimensionless); higher = more cleavage of the substrate by the protease variant
Conditions: temperature: 34 °C; time window: 0-4 h after rhamnose induction
Description: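 In vivo DNA recorder in E. coli TOP10(DE3) ΔrhaA at 34 °C. Each TEVp single-site mutant (parent TEVp 0) is paired with a single-site variant of the 7-mer TEVs (canonical ENLYFQ|S). The substrate sits between flexible linkers in a Bxb1-sfGFP-TEVs-SsrA fusion, so cleavage stabilises Bxb1 and speeds flipping of a recombination array, read by NGS. The value is the raw area under the fraction-flipped curve over 0-4 h after rhamnose induction (AUC4h), with ≥20 reads per time point. It is not background-subtracted; inactive controls average about 0.047.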
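Note: Bxb1 expression induced with 0.2% (w/v) L-rhamnose at OD600 near 0.5, cultures sampled hourly, flipped fraction per protease–substrate barcode pair counted by paired-end Illumina sequencing.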

Row | Variant | area with substrate ENLYFAS | area with substrate ENLYFCS | area with substrate ENLYFDS | area with substrate ENLYFES | area with substrate ENLYFHS | area with substrate ENLYFIS | area with substrate ENLYFLS | area with substrate ENLYFNS | area with substrate ENLYFRS | area with substrate ENLYFSS | area with substrate ENLYFTS | area with substrate ENLYFWS | area with substrate ENLYFFS | area with substrate ENLYFKS | area with substrate ENLYFPS | area with substrate ENLYFMS | area with substrate ENLYFVS | area with substrate ENLYFGS | area with substrate ENLYFYS
1 | W144L | 0.0652 | 0.0202 | 0.0623 | 0.0541 | 0.0616 | 0.0435 | 0.0564 | 0.0734 | 0.0408 | 0.0646 | 0.067 | 0.0629 |  |  |  |  |  |  | 
2 | T132Y | 0.0692 | 0.0499 |  |  | 0.0597 | 0.0262 |  | 0.0477 |  |  |  | 0.0521 | 0.068 | 0.0528 | 0.0605 |  |  |  | 
3 | G39S | 0.0363 | 0.052 | 0.0472 |  | 0.045 | 0.0456 |  | 0.0446 | 0.0468 |  | 0.0327 | 0.0437 | 0.0487 | 0.0502 | 0.0234 | 0.0451 | 0.0491 |  | 
4 | F65E | 0.0585 |  | 0.0438 | 0.0557 | 0.0467 | 0.0598 | 0.052 | 0.0304 | 0.0606 |  | 0.0513 | 0.063 | 0.0614 | 0.0583 | 0.0537 | 0.0628 | 0.0645 | 0.0681 | 0.0772
5 | D128H | 0.0531 | 0.0544 | 0.0633 |  | 0.0648 | 0.0461 |  | 0.0695 | 0.061 |  | 0.0531 | 0.06 | 0.101 | 0.0408 | 0.0614 | 0.0693 |  |  | 0.0538
6 | T31R | 0.042 | 0.0498 |  | 0.061 |  | 0.0587 | 0.0583 | 0.0761 | 0.0531 |  |  |  | 0.0637 | 0.0583 | 0.0692 | 0.0635 | 0.0117 |  | 
7 | V57M | 0.0673 |  | 0.0573 | 0.0662 | 0.0513 |  |  | 0.0658 | 0.0722 |  | 0.0609 |  | 0.0755 | 0.0252 | 0.0576 | 0.0609 | 0.0416 | 0.0665 | 
8 | M122P | 0.0214 |  | 0.0457 | 0.0475 |  | 0.0575 | 0.0533 | 0.0518 | 0.0521 | 0.0615 | 0.0771 | 0.0682 | 0.0522 | 0.056 | 0.0709 | 0.0792 |  | 0.0618 | 0.0654
9 | P155M | 0.0616 | 0.0418 |  | 0.0513 |  | 0.0465 |  | 0.0505 | 0.0475 |  | 0.0402 | 0.0568 | 0.0685 |  | 0.0519 | 0.0623 |  |  | 
10 | T159E | 0.0621 | 0.0657 | 0.0469 | 0.0652 | 0.0412 | 0.0499 |  |  |  | 0.0602 |  | 0.0456 | 0.0622 | 0.0502 | 0.0596 |  |  |  | 
11 | G162H | 0.0662 |  | 0.0552 | 0.0662 |  | 0.0481 |  | 0.0787 |  |  | 0.0552 | 0.0573 | 0.0677 | 0.0695 | 0.0581 | 0.06 | 0.0561 | 0.0601 | 
12 | F140M | 0.0648 | 0.0507 |  | 0.033 |  |  |  | 0.0572 | 0.0772 | 0.0376 |  | 0.059 |  | 0.0595 | 0.0481 | 0.0549 | 0.0507 |  | 
13 | T23Q | 0.0602 | 0.0636 |  | 0.0666 | 0.0247 | 0.0569 | 0.0619 |  | 0.0547 |  | 0.0335 | 0.0861 | 0.0595 | 0.065 | 0.0449 | 0.0667 |  |  | 0.0652
